# Measured values: PubChem BioAssay AID485344 (National Center for Advancing Translational Sciences (NCATS), 2010)
# In all, about 340,000 compounds went through this assay and about 6,900 (2%) were called active. Rule as the data show it: active = inhibition above about 30%; inactive = below that, where a call was filed. Only a part is listed here, and it is no random draw. Where no call is shown, the source filed none.
# Target: D(2) dopamine receptor (Homo sapiens) (UniProt P14416)
# Experiment: HTS Assay for Allosteric Antagonists of the Human D2 Dopamine Receptor: Primary Screen for Antagonists; also: 0% is about no effect
# Settings: HEK293 TREx D2 cells, calcium flux, dopamine EC80; at 10 µM; stronger effect = higher value
# In short: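 Calcium mobilization kinetics were recorded at 1 s intervals in tetracycline-induced HEK293 T-REx D2 cells, first for 180 s after compound addition and then 180 s after EC80 dopamine.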
# Sequence of UniProt P14416 (P14416 whole entry, looked up): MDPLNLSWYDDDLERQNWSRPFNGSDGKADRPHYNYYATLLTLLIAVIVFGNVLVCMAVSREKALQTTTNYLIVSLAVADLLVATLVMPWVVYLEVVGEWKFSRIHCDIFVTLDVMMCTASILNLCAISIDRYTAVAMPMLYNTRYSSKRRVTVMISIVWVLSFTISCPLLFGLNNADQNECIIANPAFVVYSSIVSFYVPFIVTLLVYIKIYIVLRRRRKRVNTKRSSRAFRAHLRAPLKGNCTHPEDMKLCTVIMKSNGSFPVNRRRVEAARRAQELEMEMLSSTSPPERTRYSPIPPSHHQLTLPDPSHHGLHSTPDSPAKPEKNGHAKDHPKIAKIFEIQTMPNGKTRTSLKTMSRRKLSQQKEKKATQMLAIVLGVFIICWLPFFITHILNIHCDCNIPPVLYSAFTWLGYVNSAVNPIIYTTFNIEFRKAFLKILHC
row,Compound,inhibition
1,Cc1ccc(CNC(=O)c2cccn2-c2nnc(N3CCCC3)s2)cc1,-0.166%
2,Cc1ccc2c(CC(=O)Nc3ccc(S(=O)(=O)N4CCCCC4C)cc3)coc2c1 (stereo not drawn),0.119%
3,COc1cccc(NC(=O)CN2C(=O)CSc3ccc(S(=O)(=O)N4CCCC4)cc32)c1,9.81%
4,Cc1cc(N2CCCCC2)nc2ccc(NC(=O)/C=C/c3ccc(OC(C)C)cc3)cc12,-6.6%
5,CCCN1CCN(C(=O)Cn2c(-c3cccs3)cc3ccccc32)CC1,13.7%
6,COCCCNC(=O)C1CCN(C(=O)c2cnn(-c3ccccc3)c2-n2cccc2)CC1,-3.92%
7,Cc1ccc(NC(=O)c2cnc(N3CCCCC3)c3ccccc23)c(C)c1,-3.17%
8,CCCCOc1ccc(C2=NC(c3cccs3)=Nc3ccc(CC)cc3N2)cc1,-6.13%
9,C=CCN(CC=C)S(=O)(=O)c1ccc(F)cc1,active: 30.9%
10,COc1ccc(S(=O)(=O)n2nc(C)c(S(=O)(=O)N3CCCCCC3)c2C)cc1,4.28%
11,COC(=O)c1cc(S(=O)(=O)N2CCN(c3ccc(OC)cc3)CC2)c[nH]1,-10.5%
12,COc1ccc(-c2[nH]ncc2CN2CCC(C(=O)c3ccc(F)cc3)CC2)cc1,active: 82.9%
13,Cc1nn2c(=O)cc(COC(=O)c3cccc(NC(=O)COc4ccccc4Cl)c3)nc2s1,10.3%
14,Cc1ccc(C(=O)c2cn(Cc3cccc(C)c3)c3nc(C)ccc3c2=O)cc1,4.2%
15,O=C(C[n+]1ccccc1)N/N=C/c1cc(Br)ccc1O,active: 36.4%
16,COc1ccc(NC(=O)Cn2c(=O)n(-c3ccccc3)c(=O)c3c4c(sc32)CCCC4)c(OC)c1,22.7%
17,Cc1ccc(NC(=O)CSc2ncc(S(=O)(=O)c3ccc(C(C)C)cc3)c(=O)[nH]2)cc1C,12.8%
18,CC(C)Oc1ccc(CNS(=O)(=O)c2ccc3c(c2)C(C)(C)C(=O)N3C)cc1,-1.76%
19,Cc1ccc(CNC(=O)c2nc(SCc3ccc(F)cc3)ncc2Cl)cc1,-6.85%
20,CCCNC(=O)COc1ncnc2sccc12,active: 33.1%
21,CCCN(CCC)C(=O)Cn1nnc2sc(-c3ccccc3)cc2c1=O,-6.87%

row,Compound,inhibition
1,Cc1cc(Br)ccc1OCCCCN1CCC(C)CC1,active: 35.1%
2,O=c1c2cnn(-c3ccc(F)cc3)c2ncn1Cc1cccc(Cl)c1,4.82%
3,CCn1c(=O)c2cc(C(=O)NCCCOC)sc2c2ccccc21,7.9%
4,O=C(NC1CCN(Cc2ccccc2)CC1)c1cccc(S(=O)(=O)Nc2ccc(Br)cc2)c1,active: 34.1%
5,Cc1cc(C)n(-c2nc3ccccc3nc2Nc2ccc(Cl)cc2Cl)n1,2.14%
6,CCC(C)c1ccccc1OCCCNC1CCCC1 (stereo not drawn),active: 77.7%
7,COc1ccc(CNC(=O)CCC2N=C3c4ccccc4N=C(SCc4cccc(F)c4)N3C2=O)cc1 (stereo not drawn),-5.51%
8,CC(=O)N1CCCc2cc(S(=O)(=O)NCc3cccc(C)c3)ccc21,-2.63%
9,CCOc1ccc(CCNS(=O)(=O)c2c(C)nc3scc(C)n3c2=O)cc1OCC,-15.9%
10,CCCn1c2ccccc2c2cnn(CC(=O)N3CCN(c4ccccc4F)CC3)c(=O)c21,9.16%
11,COc1cc(C(=O)NC2CCCc3ccccc32)cc(OC)c1C (stereo not drawn),active: 55.3%
12,Cc1ccc(Nc2c(-c3ccc(Cl)cc3)nc3sccn23)c(C)c1,6.04%
13,COc1cccc(N2CCN(C(=O)CCCn3c(=O)[nH]c4ccc(Br)cc4c3=O)CC2)c1,-6.07%
14,CC(C)Oc1cccc(C(=O)Nc2ccc3oc(-c4cccc(Cl)c4)nc3c2)c1,-2.69%
15,CCOc1ccc(CNC(=O)c2ccc3nc(CC)c(CC)nc3c2)cc1,-2.16%
16,Cc1ccc(C)c(NC(=O)N2CCC(CN3CCOCC3)CC2)c1,-19.4%
17,CCNc1ccc(-c2nc(-c3ccccn3)no2)cc1[N+](=O)[O-],16.9%
18,Cc1cc(NC(=O)COCc2cc(-c3ccc(F)cc3)on2)ccc1Br,-3.56%
19,COc1ccc(-c2onc(C)c2C)cc1S(=O)(=O)NCC(C)c1ccccc1 (stereo not drawn),6.56%
20,O=C(CCCCn1c(=O)c2ccccc2n(Cc2ccccc2Cl)c1=O)NCc1ccc2c(c1)OCO2,-27.7%
21,Cn1c(=O)c2c(n3c4ccccc4nc13)NC(=O)CC2c1cccc(F)c1 (stereo not drawn),-8.93%

row,Compound,inhibition
1,COc1ccc(OC)c(CNS(=O)(=O)c2ccc3[nH]c4c(c3c2)CCCCC4)c1,-5.78%
2,COc1cc(CN2CCN(Cc3ccc(C)cc3)C(CCO)C2)cc(OC)c1O (stereo not drawn),active: 57%
3,Cc1ccc(NC(=O)CSc2nccn2Cc2ccco2)cc1Cl,15.2%
4,O=c1ccc2cc(S(=O)(=O)NCc3ccc(Br)cc3)ccc2[nH]1,-7.64%
5,CCC(=O)N1CCc2cc(S(=O)(=O)NC(CC(C)C)C(=O)NCCc3cccc(C)c3)ccc21 (stereo not drawn),-3.97%
6,Cc1ccc2oc(-c3ccc(Cl)cc3)c(O)c(=O)c2c1,-19.2%
7,CCOc1ccc(-c2nn(-c3ccc(F)cc3)c3c2cnc2ccc(F)cc23)cc1,5.73%
8,Cc1cc(O)c(C(c2ccccc2)N2CCN(c3ccccc3)CC2)c(=O)n1Cc1ccco1 (stereo not drawn),0.192%
9,Cc1cc(NC(=S)NC(=O)c2ccccc2)ccc1-c1cc2ccccc2oc1=O,active: 63.5%
10,COc1ccc(-c2c(C)nn3c(-c4ccccc4)cc(C)nc23)cc1OC,-5.27%
11,Cc1cccc(C)c1NC(=O)Cn1cc(C(=O)c2ccco2)c2ccccc21,7.63%
12,CCc1nc(Nc2ccc(F)c(Cl)c2)c2c3c(sc2n1)CCCC3,-12%
13,Cc1cc(C)n(C(C)CC(=O)Nc2cccc(C#N)c2)n1 (stereo not drawn),8.26%
14,Cc1ccc2c(=O)cc(C(=O)Nc3ccc(S(=O)(=O)N4CCCCC4C)cc3)oc2c1C (stereo not drawn),-8.4%
15,CCN(CC)c1ccc(NS(=O)(=O)c2cc(-c3onc(C)c3C)ccc2OC)c(C)c1,8.03%
16,CCN(CC)CCCNC(=O)Cn1ncc2c3ccccc3n(Cc3ccccc3)c2c1=O,-1.64%
17,COc1cccc(-c2nnc(SCC(=O)N(C)c3ccccc3)o2)c1,-6.81%
18,CC(=O)Nc1cc(C(=O)NCc2ccc(F)cc2)ccc1S(=O)(=O)c1ccc(C)cc1,-2.03%
19,CN(C)CCn1cnc2c(c1=N)C(c1ccccc1)c1ccc3ccccc3c1O2 (stereo not drawn),active: 61.8%
20,CCn1c2ccccc2c2cc(CN3CCN(Cc4ccc(Cl)cc4)CC3)ccc21,14.9%
21,CCOC(=O)c1ccc(NC(=O)CC2C(=O)N(c3cccc(OC)c3)C(=O)N2Cc2cccnc2)cc1 (stereo not drawn),8.85%
